Source: the supplement of paper PMC4996465

Columns and labels:
KB3-1 [1] = test: viability (% of DMSO control); higher = more viable cells
Protocol: (§1)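 Eleven-dose screen of the NCATS MIPE 3 library on cells without co-treatment; CellTiter-Glo after 48 h, as % of DMSO wells.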

Nalm-6 [2] = test: as above
Protocol: as §1

KB3-1 [3] = test: log AC50 of viability decrease (48 h) (log10 M); higher = less potent
Protocol: (§2)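 Eleven-dose screen of the NCATS MIPE 3 library on cells without co-treatment; CellTiter-Glo after 48 h. AC50 from the curve fit; only inhibitory curves of the better fit classes are listed.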

Nalm-6 [4] = test: as above
Protocol: as §2

Compound	viability (KB3-1 [1]; 0.00078 µM) [%]	viability (KB3-1 [1]; 0.00234 µM) [%]	viability (KB3-1 [1]; 0.00702 µM) [%]	viability (KB3-1 [1]; 0.0211 µM) [%]	viability (KB3-1 [1]; 0.0632 µM) [%]	viability (KB3-1 [1]; 0.19 µM) [%]	viability (KB3-1 [1]; 0.569 µM) [%]	viability (KB3-1 [1]; 1.71 µM) [%]	viability (KB3-1 [1]; 5.12 µM) [%]	viability (KB3-1 [1]; 15.4 µM) [%]	viability (KB3-1 [1]; 46.1 µM) [%]	viability (Nalm-6 [2]; run: 1, 0.00078 µM) [%]	viability (Nalm-6 [2]; run: 1, 0.00234 µM) [%]	viability (Nalm-6 [2]; run: 1, 0.00702 µM) [%]	viability (Nalm-6 [2]; run: 1, 0.0211 µM) [%]	viability (Nalm-6 [2]; run: 1, 0.0632 µM) [%]	viability (Nalm-6 [2]; run: 1, 0.19 µM) [%]	viability (Nalm-6 [2]; run: 1, 0.569 µM) [%]	viability (Nalm-6 [2]; run: 1, 1.71 µM) [%]	viability (Nalm-6 [2]; run: 1, 5.12 µM) [%]	viability (Nalm-6 [2]; run: 1, 15.4 µM) [%]	viability (Nalm-6 [2]; run: 1, 46.1 µM) [%]	viability (Nalm-6 [2]; run: 2, 0.00078 µM) [%]	viability (Nalm-6 [2]; run: 2, 0.00234 µM) [%]	viability (Nalm-6 [2]; run: 2, 0.00702 µM) [%]	viability (Nalm-6 [2]; run: 2, 0.0211 µM) [%]	viability (Nalm-6 [2]; run: 2, 0.0632 µM) [%]	viability (Nalm-6 [2]; run: 2, 0.19 µM) [%]	viability (Nalm-6 [2]; run: 2, 0.569 µM) [%]	viability (Nalm-6 [2]; run: 2, 1.71 µM) [%]	viability (Nalm-6 [2]; run: 2, 5.12 µM) [%]	viability (Nalm-6 [2]; run: 2, 15.4 µM) [%]	viability (Nalm-6 [2]; run: 2, 46.1 µM) [%]	log AC50 of viability decrease (KB3-1 [3])	log AC50 of viability decrease (Nalm-6 [4]; run: 1)	log AC50 of viability decrease (Nalm-6 [4]; run: 2)
COc1cc2ncnc(Nc3ccc(F)c(Cl)c3)c2cc1NC(=O)/C=C/CN1CCCCC1 [Dacomitinib]	99.3	100	96.4	96	96.3	97.8	96.6	93.9	72.4	55.9	-0.968	122	114	112	124	120	115	103	98.9	58.7	43	-1.49	118	112	113	116	112	108	113	103	53.2	43.1	-0.626	-4.73	-4.88	-5.03
CO[C@@H](C(=O)N1Cc2[nH]nc(NC(=O)c3ccc(N4CCN(C)CC4)cc3)c2C1)c1ccccc1 [Danusertib]	97.1	97.8	99.2	96.6	92.7	97.6	94.1	83.1	84	81.8	14	83.7	82.6	58.5	45	45.4	45.9	41.2	40.5	29.7	23.7	3.48	105	92.4	79.9	73.3	59.3	54.6	40.7	39.6	30.1	16.8	2.79	-4.63	-6.83	-6.48
Cc1nc(Nc2ncc(C(=O)Nc3c(C)cccc3Cl)s2)cc(N2CCN(CCO)CC2)n1 [Dasatinib]	103	104	106	104	107	107	106	103	99.1	93.2	55.6	117	129	119	103	98	86.8	67.4	62.7	50	40.6	12.3	106	107	105	95.2	87.5	81.1	68.6	61.2	56.9	52	6.35	-4.68	-5.83	-5.23
C[C@@H]1C[C@H]2[C@@H]3\C=C(C)/C4=C/C5=C(C[C@]4(C)[C@H]3[C@@H](O)C[C@]2(C)[C@@]1(O)C(=O)CO)C=N[N]5C6=CC=CC=C6 [Deacetyl cortivazol]	103	105	104	102	103	104	109	99.8	90.5	85.7	0.964	52.1	42.4	40.3	42.4	41.5	43.2	36.4	35.6	8.15	5.71	0.123	49.2	44.2	37.4	41.8	44.6	38	36.4	20.6	4.56	3.05	-0.46	-4.63	-5.53	-5.78
c1cc(-c2cnn3cc(-c4ccc(OCCN5CCCCC5)cc4)cnc23)ccn1 [Dorsomorphin]	107	109	99.6	103	103	109	116	116	110	59.7	1.36	110	97.8	105	111	110	109	106	92.2	80.8	56.8	3.61	89.5	104	99.5	103	100	95	99.7	88.4	2.11	45.8	5.16	-4.78	-4.78	-5.58
CN1CCN(CC1)C2=CC3=C([NH]C(=N3)C/4=C(\N)C5=C(F)C=CC=C5NC4=O)C=C2 [Dovitinib]	101	105	107	105	102	103	81.9	70.1	73.5	68.6	11	110	118	119	116	101	110	79.5	43.6	7.04	4.74	-1.48	111	109	103	105	104	109	84.5	56.4	13.2	5.56	-0.685	-4.73	-5.93	-5.78

Viability of KB3-1 and Nalm-6 cells after 48 h of drug alone (CellTiter-Glo), 11 doses over about 4.5 log units. % of DMSO wells, lower = more cell loss; AC50 from the fitted curve, lower = more potent. No active / inactive call. Nalm-6 was screened in two runs. AC50 is listed only for well-fitted inhibitory curves. KB3-1 is a HeLa-derived carcinoma line, Nalm-6 a B-cell precursor leukaemia line.
